The supplement of paper PMC11348887
Structures can show the parent of a compound that is named as a salt. The list shows a part of the results. Cut-off read from the data, not from the text of the source: active = -2 or less and inactive = the rest. Most values come without repeats; read them as rough.

These compounds were tested on hPSC-derived cortical neurons (WA09) (assay: nuclei number (viability) z-score; higher = more surviving cells). Settings: 5 µM; treatment: days 7-14 after plating, readout day 21.
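Note: nuclei counted from DAPI counterstain by automated high-content image analysis, four fields per well at ×20 in 384-well plates, with sequential b-score then z-score normalization.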

| Structure (SMILES) | nuclei number (z-score) |
| --- | --- |
| CCN(CC)CCNC(=O)c1cc(Cl)c(N)cc1OC [MetoclopraMide HCl] | inactive: 3.45 |
| C=C1/C(=C\C=C2/CCC[C@]3(C)[C@@H]([C@H](C)CCCC(C)C)CC[C@@H]23)C[C@@H](O)C[C@@H]1O [Alfacalcidol] | inactive: 2.25 |
| CCC[C@@H]1C[C@@H](C(=O)N[C@@H]([C@H]2O[C@H](SC)[C@H](O)[C@@H](O)[C@H]2O)[C@H](C)Cl)N(C)C1 [Clindamycin] | active: -2.43 |
| CCC[C@@H]1C[C@@H](C(=O)N[C@@H]([C@H]2O[C@H](SC)[C@H](O)[C@@H](O)[C@H]2O)[C@H](C)Cl)N(C)C1 [Clindamycin HCl] | inactive: -0.105 |
| CO[C@H]1/C=C\C=C(/C)C(=O)NC2=CC(=O)C(NCCN(C)C)=C(C[C@@H](C)C[C@H](OC)[C@H](O)[C@@H](C)/C=C(\C)[C@@H]1OC(N)=O)C2=O [17-DMAG (Alvespimycin) HCl] | active: -4.1 |
| O=C(N[C@H](CO)[C@H](O)c1ccc([N+](=O)[O-])cc1)C(Cl)Cl [Chloramphenicol] | inactive: -0.419 |
| O=C(O)CCNC(=O)c1ccccc1 [Betamipron] | inactive: 2.22 |
| CC(NC(=O)c1ccccc1/N=C/c1c(O)ccc2ccccc12)c1ccccc1 (configuration not stated) [Sirtinol] | inactive: 0.689 |
| Cc1cccc(-c2[nH]c(C(C)(C)C)nc2-c2ccc3c(c2)OCO3)n1 | inactive: 2.33 |
| CC(C)(OCc1nn(Cc2ccccc2)c2ccccc12)C(=O)O [Bindarit] | inactive: -0.198 |
| CCCN1CCCC[C@H]1C(=O)Nc1c(C)cccc1C [Ropivacaine HCl] | inactive: 1.12 |
| Cc1c(C(=O)NN2CCCCC2)nn(-c2ccc(Cl)cc2Cl)c1-c1ccc(I)cc1 | inactive: 1.77 |
| CCc1nc(N)nc(N)c1-c1ccc(Cl)cc1 [Pyrimethamine] | inactive: -0.273 |
| CC(C)NCC(O)COc1ccc(CCOCC2CC2)cc1 (configuration not stated) [Betaxolol HCl] | inactive: -0.32 |
| CC(C)NCC(O)COc1ccc(CCOCC2CC2)cc1 (configuration not stated) [Betaxolol] | inactive: 1.32 |
| CN1CC(=O)N2[C@H](c3ccc4c(c3)OCO4)c3[nH]c4ccccc4c3C[C@@H]2C1=O [Tadalafil] | inactive: -0.106 |
| CCN(C(=O)c1c(O)c2c(Cl)cccc2n(C)c1=O)c1ccccc1 [Laquinimod] | inactive: 2.03 |
| CCOc1nc2cccc(C(=O)OCc3oc(=O)oc3C)c2n1Cc1ccc(-c2ccccc2-c2noc(=O)[nH]2)cc1 [Azilsartan Medoxomil] | inactive: 0.8 |
| COc1ccc(NS(=O)(=O)c2sc3ccc(Cl)cc3c2C)cc1N1CCNCC1 | inactive: 0.942 |
| C1COC(NC(C2CC2)C2CC2)=N1 [Rilmenidine Phosphate] | inactive: 1.5 |
| COc1cc(OC2CCN(C)CC2)ccc1Nc1ncc2c(n1)n(C1CCCC1)c(=O)n2C | inactive: 0.349 |

| Structure (SMILES) | nuclei number (z-score) |
| --- | --- |
| C#CCN[C@@H]1CCc2ccccc21 [Rasagiline Mesylate] | inactive: 0.579 |
| CCOC(=O)O[C@]1(C(=O)OCCl)CC[C@H]2[C@@H]3CCC4=CC(=O)C=C[C@]4(C)[C@H]3[C@@H](O)C[C@@]21C [Loteprednol etabonate] | inactive: -0.232 |
| CCc1c2c(nc3ccc(O)cc13)-c1cc3c(c(=O)n1C2)COC(=O)[C@]3(O)CC | inactive: -0.601 |
| CCN(C)S(=O)(=O)Nc1ccc(F)c(C(=O)c2c[nH]c3ncc(-c4cnc(C5CC5)nc4)cc23)c1F | inactive: 0.301 |
| O=C(NCC1(c2nc(-c3ccccc3)cs2)CCOCC1)c1cccc(-c2noc(C(F)(F)F)n2)c1 | inactive: 1.34 |
| CC(C)C(=O)Oc1ccc(CO)cc1[C@H](CCN(C(C)C)C(C)C)c1ccccc1 [Fesoterodine Fumarate] | inactive: 0.432 |
| Cc1nn(-c2ccccc2)c(C)c1C=NN1CCN(Cc2ccccc2)CC1 | inactive: 0.0858 |
| Cc1ccc(NC(=O)c2ccc(CN3CCN(C)CC3)cc2)cc1Nc1nccc(-c2cccnc2)n1 [Imatinib Mesylate (STI571)] | inactive: 0.229 |
| Cc1ccc(NC(=O)c2ccc(CN3CCN(C)CC3)cc2)cc1Nc1nccc(-c2cccnc2)n1 [Imatinib (STI571)] | inactive: -1.07 |
| O=C(O)C(=O)O.[NH-][C@@H]1CCCC[C@H]1[NH-].[Pt+2] [Oxaliplatin] | inactive: -0.167 |
| C[C@H]1c2cccc(O)c2C(=O)C2=C(O)[C@]3(O)C(=O)C(C(N)=O)=C(O)[C@@H](N(C)C)[C@@H]3[C@@H](O)[C@@H]21 [Doxycycline Hyclate] | inactive: 4.55 |
| C[C@H]1c2cccc(O)c2C(=O)C2=C(O)[C@]3(O)C(=O)C(C(N)=O)=C(O)[C@@H](N(C)C)[C@@H]3[C@@H](O)[C@@H]21 [Doxycycline HCl] | inactive: -0.522 |
| COc1cc2c(cc1OC)CC(=O)N(CCCN(C)C[C@H]1Cc3cc(OC)c(OC)cc31)CC2 [Ivabradine HCl] | inactive: -0.604 |
| Cc1c(C(=O)NN2CCCCC2)nn(-c2ccc(Cl)cc2Cl)c1-c1ccc(Cl)cc1 [Rimonabant] | inactive: -1.67 |
| COc1cc2c(c(OC)c1OC)-c1c(cc3c(c1OC)OCO3)CC(C)C(C)C2 (configuration not stated) [Schisandrin B (Sch B)] | inactive: 0.0425 |
| CCOC(=O)c1cnc2ccc(-c3cncc(NS(=O)(=O)c4ccccc4)c3)cn12 | inactive: 0.578 |
| C[C@](N)(Cc1ccc(O)c(O)c1)C(=O)O [Methyldopa] | inactive: -0.924 |
| C[C@@H](Nc1cc(F)cc(F)c1)c1cc(C(=O)N(C)C)cc2c(=O)cc(N3CCOCC3)oc12 | inactive: -0.229 |
| Clc1ccc(C(Cn2ccnc2)OCc2ccsc2Cl)c(Cl)c1 (configuration not stated) [Tioconazole] | inactive: -0.421 |
| COc1cc(C(=O)N2CCC(N3CCN(C)CC3)CC2)ccc1Nc1ncc2c(n1)N(C)c1ccccc1C(=O)N2C | active: -2.31 |
| COc1ccccc1S(=O)(=O)Nc1ccc2c(c1)CN(C)C(=O)N2 | inactive: 0.176 |
